According to the supplement of paper PMC3334620:
The full ranking holds about 33,000 sequences; the median of “E-score (-0.5 to 0.5)” is about -0.013, and the highest 2% start at about 0.3. The list shows a part of the results.

These sequences were tested against T1, Msn1 (UniProt P22148) (assay: PBM E-score (8-mer binding enrichment) (E-score (-0.5 to 0.5)); higher = stronger / more preferred TF binding; most listed sequences are background and not binding sites). Settings: protein concentration: 200 nM; construct: GST-full length.
T1 sequence: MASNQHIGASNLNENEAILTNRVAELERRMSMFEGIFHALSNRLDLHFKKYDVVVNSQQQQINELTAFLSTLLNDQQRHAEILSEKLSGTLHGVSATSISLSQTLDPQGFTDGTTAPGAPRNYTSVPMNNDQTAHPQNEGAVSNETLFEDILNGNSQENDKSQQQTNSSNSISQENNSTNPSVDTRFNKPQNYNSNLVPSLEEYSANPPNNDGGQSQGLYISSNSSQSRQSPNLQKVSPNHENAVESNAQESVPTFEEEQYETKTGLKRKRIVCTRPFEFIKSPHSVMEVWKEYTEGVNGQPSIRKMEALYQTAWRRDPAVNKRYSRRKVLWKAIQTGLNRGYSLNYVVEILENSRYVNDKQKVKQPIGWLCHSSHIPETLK
Protocol: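 Universal 'all 10-mer' protein binding microarrays (Agilent AMADID 015681) probed with GST-tagged S. cerevisiae TFs (full-length or DBD) made by in vitro transcription/translation (PURExpress), about 100-200 nM. Bound TF was detected with fluorescent anti-GST. Each ungapped 8-mer (which stands for itself and its reverse complement) is scored by the PBM enrichment score (E-score), a modified Wilcoxon-Mann-Whitney statistic from -0.5 to +0.5, computed with the Universal PBM Analysis Suite. Scale: above 0.35 generally sequence-specific binding.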

| Sequence | PBM E-score |
| --- | --- |
| CGGTCGGA | -0.0558 |
| ACAATATC | 0.247 |
| CTATGGTA | -0.058 |
| CCGCCGGA | 0.12 |
| GCTCACGA | -0.185 |
| GATTGTCC | 0.458 |
| ATGCGTGA | 0.167 |
| ATGCTGTC | 0.0368 |
| AACCAAGC | -0.0788 |
| GTCTCCAA | 0.0934 |
| GTACTAAA | 0.281 |
| CCTCCTAC | -0.352 |
| CCGACGTA | -0.149 |
| ATTTTTGG | 0.0371 |
| ACACTAAC | 0.119 |
| CACACCCA | 0.00267 |
| ACTAGTGC | 0.163 |
| CGATAGAC | -0.0284 |
| CTTACTAC | 0.0818 |
| ATCGCCCC | -0.23 |
| CAGGACTG | -0.137 |
| GGAGGGAC | 0.166 |
| CACCCGGA | 0.00098 |
| CCCCGGAC | -0.0556 |
| CAACGGAG | -0.0515 |

| Sequence | PBM E-score |
| --- | --- |
| CTTACAGC | 0.0295 |
| CCACTCAG | -0.242 |
| GTCGTCTA | -0.00305 |
| AGGCCTCA | -0.261 |
| CAAGAAGC | 0.0015 |
| AGTAAACA | 0.0506 |
| CGAACGCG | 0.0282 |
| TCCCTCGA | 0.0135 |
| CGTTTCGC | 0.0248 |
| GCAACTAA | 0.044 |
| AGGGGACT | -0.151 |
| GAGTTAGC | -0.0683 |
| ACCTTTGG | -0.343 |
| GTGCGCAA | -0.0763 |
| GCCCCGCC | -0.0833 |
| CCTTCATA | 0.0448 |
| ACTAACGA | -0.00087 |
| CGTCGTGA | 0.016 |
| AGGAGAGG | -0.357 |
| AGGCAGGG | -0.256 |
| ATAGGAAT | -0.0141 |
| CAGCGAGC | 0.0729 |
| GAAATACC | -0.0126 |
| GAAGCCCC | -0.359 |
| CAGCATGG | -0.0875 |

| Sequence | PBM E-score |
| --- | --- |
| CTTCATGA | 0.0972 |
| ATATGACC | -0.0751 |
| AGCCCGCC | -0.268 |
| GAACGCTC | -0.15 |
| AGCAATCA | 0.0558 |
| ACGCACCC | -0.219 |
| ATCAGAAT | -0.0571 |
| CTCTGTAC | 0.0138 |
| CTACGTTC | -0.126 |
| ATAGGGCC | -0.158 |
| TCCTAGAA | 0.127 |
| CCGAGTTC | 0.0909 |
| TCCGGGCA | 0.171 |
| CGATACGC | 0.0134 |
| CCTCGATC | -0.00455 |
| GAAACCAA | -0.078 |
| ACGTGCTG | -0.0351 |
| AAGCGCGC | 0.133 |
| GAGGAGAC | -0.117 |
| AGTGTTCA | -0.0345 |
| CTGTGCCC | -0.131 |
| ACCCGTCC | -0.0862 |
| AGCTCGTG | -0.0447 |
| GCCTCCAC | -0.295 |
| AAACGTTT | 0.291 |

| Sequence | PBM E-score |
| --- | --- |
| CTGCACGA | 0.00403 |
| ACCGATCC | -0.12 |
| CCTTTAGC | -0.107 |
| CATACCGC | 0.104 |
| GCATATGA | -0.0245 |
| AAACAGTA | -0.0344 |
| CGAGCCTA | -0.12 |
| AATGGGCG | -0.132 |
| AAGAGTTA | -0.0816 |
| CCACGGTA | -0.145 |
| ACGCGCTG | -0.0805 |
| TGGGGGAA | -0.337 |
| GTCACCAA | 0.00107 |
| AATGGGGA | -0.00796 |
| GACACAAC | 0.16 |
| AGAGAGCC | -0.262 |
| AGCATCTG | -0.0786 |
| ATGTTTTA | 0.0474 |
| TAACCTGA | -0.0313 |
| ACGGACGA | 0.0949 |
| TTGATCAA | 0.0253 |
| GTTGCGGA | 0.0984 |
| CAGTAACA | 0.0131 |
| CCAAGCCC | -0.141 |
| AGCTCTCC | -0.222 |

| Sequence | PBM E-score |
| --- | --- |
| CTTTTATA | 0.0612 |
| TACAACCA | 0.0532 |
| ACGAATCC | 0.0413 |
| CCTTACAG | -0.011 |
| CCGCAGTC | -0.132 |
| ACCAGGCA | -0.197 |
| AAATTGGG | 0.15 |
| AGAGGGCC | -0.237 |
| ATTCTACA | 0.0776 |
| TACTTAGA | 0.0191 |
| CTAACGCC | 0.0406 |
| ATCAGTGG | -0.184 |
| GTGGGATA | -0.0948 |
| ACATTGGG | 0.097 |
| CCATGAGA | 0.00391 |
| GCTATGTA | -0.00603 |
| AGGGTTAT | 0.0362 |
| AGTGCACA | -0.153 |
| AATATGGC | -0.0707 |
| AGCCTGTC | -0.0726 |
| CAAAATGC | 0.124 |
| CTACGGAG | -0.141 |
| GCCAGACC | -0.164 |
| CGGGATAG | 0.0061 |
| AGGGCTTG | -0.0956 |

| Sequence | PBM E-score |
| --- | --- |
| CAAGCTAC | -0.184 |
| ATCGTTTA | 0.141 |
| AGCTGGAG | -0.251 |
| ATGCGCCC | -0.0106 |
| ATGAAGGG | -0.242 |
| TGAATAAA | 0.0805 |
| GACAGTAA | 0.00864 |
| CGTTGGGA | 0.0807 |
| ACAACGAA | 0.12 |
| ACAATTCC | 0.163 |
| GCCCAGGC | -0.225 |
| ACTGCAAT | -0.0168 |
| CGCCGAAG | 0.0653 |
| ACCACTGG | 0.138 |
| CGACCACA | -0.135 |
| AGCAGCAG | 0.0717 |
| ACTCGCGA | 0.224 |
| GACGCGCC | -0.00097 |
| AACATAAT | 0.231 |
| ATTATGGC | 0.00016 |
| GTGGTATA | 0.079 |
| CAAAATGA | 0.139 |
| CCCCCTGA | -0.4 |
| ACGAGCAA | -0.0242 |
| CCTTATCC | -0.126 |

| Sequence | PBM E-score |
| --- | --- |
| AGGGGGCA | -0.378 |
| ATCTGTTA | 0.183 |
| CGATCCCA | -0.0985 |
| AAGAAACT | 0.0808 |
| ACCATGAG | -0.147 |
| CTATCGTA | 0.0396 |
| AGATCCTC | -0.125 |
| CAATTTTC | 0.0166 |
| CAATGAAC | -0.0298 |
| ACACCACG | -0.091 |
| ATCTCAAC | 0.0953 |
| ACAGGGTG | -0.176 |
| CCCTATTA | -0.0488 |
| AGAGCGCG | 0.0616 |
| CAGGCCAA | -0.204 |
| GAATCAGC | -0.0512 |
| ATATTGGG | 0.0534 |
| CCAAAGCG | -0.0329 |
| CATGTCAA | 0.236 |
| AGTTAACT | -0.007 |
| AATGACCC | -0.145 |
| CCCCTATA | -0.235 |
